These results are taken from the RNAGym collection of RNA variant scans (doi:10.7554/elife.90254).

To fix the notation:
B1: LINE1-mini (parent)
chain: GGCAGAGCUCAACACAGCGUGGCAAAGUGGCUGUGGCUAGACUGCC

Read counts are not given, so values of variants with three or more changes are uncertain.

This series covers variants of B1. The series can be described thus: self-cleavage, relative activity (ratio to wild type); higher = more cleavage; in vitro, sequencing; the parent is a self-cleaving ribozyme.
With G2A A6C U38C, the self-cleavage was 0.37.
The value for G1U U9G A26U was 0.07; that for G2A C31U G40U was 0.03.
G1U U9A A26G: the self-cleavage is 0.01.
The value for G1U G2C G7C A12U G40A was 0.08.
The value for G2A A39C G44A was 0.11.
Consider G1U U34G C42A C46U, for which the self-cleavage came to 0.02.
On to G2A A14U C18G C37G A39G, for which the self-cleavage is 0.47.
With G2A C10G C18U G21C U32C C37A G40C G44U the figure was 0; with G2A C23A U34C G35C, 0.27; with G1U U9A C10U G36C C46A, 0.02.
The value for G1U C37U A39C was 0.04; that for G2A C10G G36C C46G was 0.04.
On to G1U G5C C10A G22A, for which the self-cleavage was 0.01.
With G1U U9A C10A U20C C23A U32C G44U the figure was 0.01; with G2A C3U C42A, 0.15; with G1U U28A C31A, 0.09.
With G2A C8G G17A U32C A41U the figure was 0.1; with G2A A24G C37A, 0.74; with G1U U34A U38G, 0.01.
The value for G2A C10A C13A A14C G30C C46A was 0.07.
Consider G1U C13U C15U G36A, for which the self-cleavage is 0.1.
With G2A A6C C13G A39G G44U the figure was 0.05; with G1U G30C U34G A41C U43A, 0.01.
Consider G2A G5A G21U A41U, for which the self-cleavage came to 0.2.
As to G2A C3A G19U U43A, the self-cleavage amounted to 0.67.
G1U C13G A14G: the self-cleavage came out at 0.1.
Turning to G1U G2C U28C, the self-cleavage came out at 0.03.
With G1U C18A G21A the figure was 0.27.
With G1U U9G G27A, the self-cleavage worked out at 0.06.
With G2A C10A A25U A26G G40A the figure was 0.01.
As to G2A G5C A6C A16G C23G, the self-cleavage amounted to 0.66.
The value for G2A C18G G33U was 0.07; that for G1U G7C C13U G19A G44C was 0.02; that for G1U U32C G35C was 0.02.
For G1U G5C C8A A16G U20A G27C, the self-cleavage is 0.03.
The value for G2A A6C A26C U32C A39G C42G G44A was 0.22; that for G1U U9G C13A C15A A16U U20C C37U was 0.01.
The value for G2A A12C G22U G33C A41C C46U was 0.01.
For G1U G5U C18A C31G, the self-cleavage was 0.04.
With G2A A4C A11C U28C G30A C31G C42U the figure was 0.01; with G1U G5A G30U, 0.02; with G1U C10U G22A, 0.
Regarding G2A A24U G29C C42U, the self-cleavage turned out to be 0.55.
The value for G2A C10U C23A U43A was 0.08.
The value for G2A C13U A14U G29C was 0.32.
With G2A A25C U34A C45G the figure was 0.12.
Take G2A A6G G44U: the self-cleavage is 0.08.
The value for G2A A14G G21A was 0.15; that for G2A C8A C15G was 0.21; that for G1U G19A G22A was 0.09.
With G2A C3U C8A A12G the figure was 0.21.
With G1U C31G U38G G44C the figure was 0.01; with G1U G21C G40U, 0.18.
For the variant G2A C10U U20C U28C C37G, the self-cleavage is 0.01.
Consider G2A C3G A11U C13A A39C G40U, for which the self-cleavage came out at 0.02.
In the case of G1U G5A G21U G30U G40U, the self-cleavage worked out at 0.02.
On to G1U U9A G29U G30A C37U, for which the self-cleavage is 0.08.
On to G2A A4C C13U, for which the self-cleavage amounted to 0.92.
For G2A A24U A41U, the self-cleavage was 2.01.
The value for G1U G21C G29U was 0.18.
The value for G1U G29U U32C was 0.07; that for G1U G7A A25U G27A C42A was 0.04; that for G2A C3U A11U was 0.08.
The value for G2A A4U U34C C42U was 0.32; that for G2A C3A A12G G22A U34G A39C C46A was 0.02; that for G1U C13U C46U was 0.11.
For G1U C10G A14U C23G G30C U43G, the self-cleavage came out at 0.
With G2A A4U A24U G44U the figure was 0.18; with G2A A6G A11G C18G U28A U32A G35A C46U, 0; with G1U G7U C46G, 0.03.
The value for G1U U38G G44C was 0.01; that for G1U G2U G7A A14U C31U was 0.03; that for G1U G2U G27C U32C G36A was 0.03.
Turning to G1U G7C A14G G29A G35A, the self-cleavage is 0.03.
With G2A C37A C46A the figure was 0.48.
The value for G1U G5U C8U A11U G29C U43A G44U was 0.02.
With G2A C10A A16G G22U the figure was 0.03.
Regarding G1U C13G U20G G36A, the self-cleavage is 0.02.
As for G2A A12G G19U G44U, the self-cleavage turned out to be 0.02.
The value for G1U U28G G40C A41U G44A C46U was 0.03.
As to G2A A14G U38A, the self-cleavage stood at 0.35.
With G1U C13A A26G G30A U34C C42U the figure was 0.02; with G2A C15A G33C C45U, 0.03.
For the variant G2A C18U A41U, the self-cleavage is 0.24.
The value for G1U C23G G44A was 0.17; that for G2A A25C U34A was 0.51.
The value for G1U C13U G30U U43G was 0; that for G1U G2C G5U A6C C13G was 0.02.
Consider G2A A6U A39U, for which the self-cleavage worked out at 0.33.
With G1U C15U C23A G29A C31A C37U the figure was 0.01; with G2A C15U C23U G33U C37A U38A, 0.2; with G2A A12G A16U C45U, 0.
With G2A G5A C10A G29U C42U the figure was 0.05; with G1U U20A A24U G33U G36C, 0.
The value for G2A C23A A24G A26U was 0.29; that for G1U G2C A4C C10A was 0.02.
Take G2A C8A G19C U20A C37A: the self-cleavage turned out to be 0.04.
With G1U G5C C18U G19A A26G U34C the figure was 0.04; with G2A C3G G36C G40A, 0.19.
As to G1U C10U G17C G40U A41U C46A, the self-cleavage was found to be 0.02.
With G2A C23A C31A the figure was 0.06; with G2A C18A C31U G36C U38C A41C, 0.02.
As for G1U C23G C45A, the self-cleavage came out at 0.15.
With G1U C10U C31G C37A the figure was 0.01; with G1U G7C C10G A41C, 0.02; with G2A C8A G17A A25G C45G C46A, 0.29.
The value for G1U C23G U32A was 0.03; that for G2A A12G A25G C46G was 0.01.
With G2A C8G G30A, the self-cleavage is 0.07.
With G2A C3A G5A C10G A12C C31A A41G the figure was 0.03; with G1U G5C A6U A26C C31U C45G, 0.06.
With G1U G22U G40C U43G the figure was 0.01; with G1U G7C C31U, 0.04.
For G2A C13A C31G G35C U38A A39G, the self-cleavage was 0.08.
With G1U G5U C10A A12U A39U G40U the figure was 0.
Consider G1U G7C U9G C10A G33A G44A, for which the self-cleavage came out at 0.
Turning to G1U U9A C31G, the self-cleavage came to 0.
With G1U G5U A6U G44U the figure was 0.02; with G2A C10G A26C, 0.07.
G1U U43A C46U: the self-cleavage was determined as 0.2.
For G2A C13A A25U, the self-cleavage was 0.25.
With G1U C31G G33A the figure was 0.06; with G1U G2U A12U A24U, 0.03; with G1U G5A C37U, 0.22.
In the case of G1U U38A G44U, the self-cleavage worked out at 0.16.
With G1U C10G G30U U43C the figure was 0.01; with G2A C15U A41C C45G, 0.06; with G2A C15A C23A A25G G35A G36U U43A, 0.07.
With G1U C10U G22U A24U C46U the figure was 0.11; with G1U G5U G22A C23G G30C, 0.02.
The value for G1U G21U A26G C45A was 0.56.
As to G2A C3U A6C A11U U20G G29A U43C C46A, the self-cleavage turned out to be 0.01.
The value for G1U C10A G19A C46U was 0.02; that for G2A A11G G19A was 0.08.
With G1U G5U C37A, the self-cleavage turned out to be 0.02.
The value for G2A A14U A16G G17U C23A G27A G36A was 0.16; that for G2A C18G G21U was 0.23.
In the case of G2A A6G C8G U9G G29U G30C C37U U38C, the self-cleavage worked out at 0.01.
Consider G1U U32A G36U, for which the self-cleavage stood at 0.07.
The value for G2A C15A G29A was 0.37; that for G1U G2U C10A A14U U32G C46G was 0.01.
The value for G1U C10A C37U G40U was 0; that for G2A A12U C42A was 0.32.
With G1U G2A G7A the figure was 0.29; with G1U G2U A12U G29A, 0.02.
Turning to G2A A6U C10U C13U A24C, the self-cleavage is 0.05.
The value for G2A A12U C18A U28G C37A was 0.1; that for G1U G5A U9G U28C was 0.03.
The value for G1U C15A A24C A39G was 0.07.
With G1U G5C C10A G19C U28G the figure was 0.01; with G2A C8U A26U, 0.82; with G2A C23U A25G C42U U43A, 0.02.
As for G1U G2A G7A G29C, the self-cleavage is 0.11.
With G1U C18U G21C U43A the figure was 0.05; with G1U G21U A26G G29U, 0.86; with G2A A26U C42A, 0.07.
With G1U G22A A26G A39C the figure was 0.03; with G1U C23G C46A, 0.16.
With G1U G5A U34A the figure was 0.07.
With G2A C3A C18G C42U, the self-cleavage was 0.87.
The value for G2A A25U G29A A41C was 0.31.
On to G2A A4C G19U, for which the self-cleavage came out at 0.08.
The value for G2A C13U G21A A25U was 0.38.
With G1U U9A C42G, the self-cleavage came out at 0.
G2A C8G C10A A26C C37G: the self-cleavage was found to be 0.02.
With G1U G19A G27U C46U the figure was 0.26.
